According to PubChem BioAssay (NCI):
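1) Cells in 96-well plates. 2) Compound, 48 h, 5 concentrations. 3) Linear interpolation between surrounding doses. 4) Unreached endpoint = highest concentration. The concentration for 50% growth inhibition is given as GI50. TGI: total growth inhibition.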

System: NCI-H322M lung
Test: NCI anticancer screen, dose series, 48 h

SMILES	GI50 [µM]	TGI [µM]
NC(=O)c1c(NC(=O)c2ccccc2C(F)(F)F)sc2c1CCC(=O)C2	4.79	80.4
CCN1C(=O)N(CC)C2SC(N/N=C/c3ccc(F)cc3)=NC21 (centres undefined)	0.902	> 100
